No constants are given. Whether binding was seen depends on the method and setting. In cells and extracts the contact can be indirect. Some results given as binding are weak or reduced against the parent protein; the word gives no strength. Where a sequence is shown, tags or fusion partners need not be part of it.
Biological target: T1, Flag-tagged TRIM45 (stably overexpressed in U87) (UniProt Q9H8W5)
T1 sequence: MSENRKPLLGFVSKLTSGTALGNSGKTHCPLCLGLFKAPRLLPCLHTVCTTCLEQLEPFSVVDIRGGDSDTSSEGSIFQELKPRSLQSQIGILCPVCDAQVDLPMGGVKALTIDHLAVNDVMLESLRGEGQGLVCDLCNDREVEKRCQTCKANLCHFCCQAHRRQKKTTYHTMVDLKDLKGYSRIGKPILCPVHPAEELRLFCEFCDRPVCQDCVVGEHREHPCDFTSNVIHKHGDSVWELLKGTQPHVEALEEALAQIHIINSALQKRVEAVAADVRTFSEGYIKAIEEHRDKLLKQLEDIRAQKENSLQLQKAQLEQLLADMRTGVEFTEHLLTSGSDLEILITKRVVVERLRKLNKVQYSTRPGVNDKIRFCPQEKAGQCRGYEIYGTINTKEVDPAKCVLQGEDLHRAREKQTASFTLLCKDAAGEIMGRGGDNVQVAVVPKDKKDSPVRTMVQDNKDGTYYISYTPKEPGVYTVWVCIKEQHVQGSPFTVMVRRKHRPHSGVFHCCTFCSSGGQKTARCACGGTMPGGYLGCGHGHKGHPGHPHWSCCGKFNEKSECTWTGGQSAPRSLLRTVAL
Assay: co-IP; extracts of U87 cells stably overexpressing Flag-TRIM45 or control cells; immunoprecipitated with anti-Flag beads, immunoblotted with anti-p53

Substance: endogenous p53 (from UniProt P04637 1-393)
- binding: binds
